Toxic doses and inconclusive results are not listed. Some entries of the source have several records that differ or are many. They are shown here; other results are not. The source may hold further records. Values that stand side by side are repeated measurements (runs, samples, wells, individuals or studies). Marks such as (2×) give the number of equal values in this list.
Tested on: L1210 leukemia ip in BDF1 mice, survival T/C
Test: NCI In Vivo Anticancer Drug Screen. Data for tumor model L1210 Leukemia (intraperitoneal) in B6D2F1 (BDF1) mice
Conditions: endpoint: mean survival time, higher = longer survival

COc1cc(NS(C)(=O)=O)ccc1Nc1c2ccc([N+](=O)[O-])cc2nc2c(C)cccc12
T/C (dose: 10.0 mg/kg/injection, schedule: Q01DX009 (ip), vehicle: saline): 92 % of control and 175 % of control

COc1cc2c(c(OC)c1OC)-c1ccc(OC)c(=O)cc1[C@@H](NC(=O)CF)CC2
T/C (dose: 0.18 mg/kg/injection, schedule: Q01DX009 (ip), vehicle: saline): 111 % of control and 151 % of control

S=P(N1CCOCC1)(N1CC1)N1CC1
T/C (dose: 70.0 mg/kg/injection, schedule: Q01DX001 (ip), vehicle: saline): 123 % of control and 168 % of control
T/C (dose: 80.0 mg/kg/injection, schedule: Q01DX003 (ip), vehicle: saline): 106 % of control and 196 % of control

O=c1[nH][nH]c(=O)n1O
T/C (dose: 200.0 mg/kg/injection, schedule: Q01DX009 (ip), vehicle: saline): 100 % of control (2×) and 152 % of control

NC(CSC(c1ccccc1)(c1ccccc1)c1ccccc1)C(=O)OC(c1ccccc1)c1ccccc1 (stereo not drawn)
T/C (dose: 400.0 mg/kg/injection, schedule: Q01DX001 (ip), vehicle: carboxymethylcellulose (CMC)): 118 % of control and 151 % of control

NNC(=O)NO
T/C (dose: 50.0 mg/kg/injection, schedule: Q01DX009 (ip), vehicle: saline): 124 % of control and 154 % of control

Nc1cc(Cl)c(Cl)c(Cl)c1
T/C (dose: 200.0 mg/kg/injection, schedule: Q01DX001 (ip), vehicle: carboxymethylcellulose (CMC)): 96 % of control and 153 % of control

From PubChem BioAssay AID248 (DTP/NCI, 2004)
